# According to the supplement of paper PMC7826260:
# Some of the results follow. Each Rep nickase domain was tested in vitro on the same pool of single strands for 1 h at 37 °C with 3 µM enzyme; only the middle of the 90-letter strands is printed. Numbers give uncut DNA relative to the enzyme-free pool, as log2; more negative means more cut, near 0 not cut, and no call is made. Because reads are shares of a total, they shift together; uncut strands gain when others are lost, and binding without cutting may add a little.
# Assays:
# Experiment in all cases: uncleaved DNA left, log2 of reads against the no-enzyme library (log2 ratio); higher = less cleavage (more negative = more Rep cleavage of the k-mer); sequences stand for … in CTCGTCCG…ACCGGAGA
# [1] = system: T1, Rep nickase domain of Muscovy duck circovirus
# T1 sequence (protein, residues 1-111, tag omitted): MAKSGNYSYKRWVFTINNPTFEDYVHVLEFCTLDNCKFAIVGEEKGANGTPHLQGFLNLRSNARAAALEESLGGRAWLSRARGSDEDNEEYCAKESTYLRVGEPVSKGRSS
# Method: (§1)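 A pool of 90-nt single-stranded DNAs with seven random bases just before the constant AC of the nick site (name = the seven bases) was cut by 3 µM recombinant His6-SUMO-tagged Rep nickase domain (300 nM DNA, 50 mM HEPES pH 8.0, 50 mM NaCl, 1 mM MnCl2, 1 h, 37 °C, three replicates). Uncut DNA was amplified and sequenced.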
# [2] = system: T2, Rep nickase domain of banana bunchy top virus
# T2 sequence (protein, residues 1-94, tag omitted): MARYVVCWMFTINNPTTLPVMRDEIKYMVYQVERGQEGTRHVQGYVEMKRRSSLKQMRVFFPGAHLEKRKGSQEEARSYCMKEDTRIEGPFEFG
# Method: as §1
# [3] = system: T3, Rep nickase domain of cabbage leaf curl virus
# T3 sequence (protein, residues 1-116, tag omitted): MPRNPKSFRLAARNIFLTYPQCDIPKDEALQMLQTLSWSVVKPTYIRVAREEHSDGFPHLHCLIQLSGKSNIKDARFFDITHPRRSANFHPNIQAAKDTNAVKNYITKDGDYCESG
# Method: as §1
# [4] = system: T4, Rep nickase domain of chickpea chlorotic dwarf virus
# T4 sequence (protein, residues 1-124, tag omitted): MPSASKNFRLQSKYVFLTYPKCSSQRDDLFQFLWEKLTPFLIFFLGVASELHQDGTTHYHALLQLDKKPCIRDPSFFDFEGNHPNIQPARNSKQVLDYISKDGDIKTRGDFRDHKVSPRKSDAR
# Method: as §1
# [5] = system: T5, Rep nickase domain of faba bean necrotic yellows virus
# T5 sequence (protein, residues 1-98, tag omitted): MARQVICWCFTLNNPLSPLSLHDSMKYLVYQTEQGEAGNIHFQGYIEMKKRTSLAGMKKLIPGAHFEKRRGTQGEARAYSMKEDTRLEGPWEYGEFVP
# Method: as §1
# [6] = system: T6, Rep nickase domain of maize striate mosaic virus
# T6 sequence (protein, residues 1-117, tag omitted): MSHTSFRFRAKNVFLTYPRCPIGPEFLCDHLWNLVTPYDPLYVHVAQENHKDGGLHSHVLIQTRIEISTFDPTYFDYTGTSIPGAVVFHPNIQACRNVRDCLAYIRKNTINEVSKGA
# Method: as §1
# [7] = system: T7, Rep nickase domain of porcine circovirus 2
# T7 sequence (protein, residues 2-116, tag omitted): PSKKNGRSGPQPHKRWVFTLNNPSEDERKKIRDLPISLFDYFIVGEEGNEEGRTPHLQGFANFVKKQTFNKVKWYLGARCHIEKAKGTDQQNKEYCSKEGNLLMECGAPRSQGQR
# Method: as §1
# [8] = system: T8, Rep nickase domain of tomato yellow leaf curl virus
# T8 sequence (protein, residues 1-136, tag omitted): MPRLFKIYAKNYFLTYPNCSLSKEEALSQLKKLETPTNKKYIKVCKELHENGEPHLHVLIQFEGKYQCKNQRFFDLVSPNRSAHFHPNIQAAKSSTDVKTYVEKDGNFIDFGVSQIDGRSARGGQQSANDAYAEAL
# Method: as §1
# [9] = system: T9, Rep nickase domain of wheat dwarf virus
# T9 sequence (protein, residues 1-137, tag omitted): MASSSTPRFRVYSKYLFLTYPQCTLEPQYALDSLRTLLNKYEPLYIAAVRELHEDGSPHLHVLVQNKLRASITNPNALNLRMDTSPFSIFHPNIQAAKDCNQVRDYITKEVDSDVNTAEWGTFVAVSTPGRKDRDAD
# Method: as §1
Sequence,uncleaved DNA left (log2) [1],uncleaved DNA left (log2) [2],uncleaved DNA left (log2) [3],uncleaved DNA left (log2) [4],uncleaved DNA left (log2) [5],uncleaved DNA left (log2) [6],uncleaved DNA left (log2) [7],uncleaved DNA left (log2) [8],uncleaved DNA left (log2) [9]
TCGGTTG,0.0311,-0.117,0.00162,0.355,-0.0149,0.721,0.00818,-0.129,-0.0651
AATGCTT,-0.181,-0.345,-0.106,-1.54,-0.103,0.495,-0.853,-0.108,-0.0318
AAAAATC,0.0096,-0.0595,-0.313,-0.795,0.0231,-0.767,-0.0587,-0.0352,-0.0546
ACAAGCC,0.0203,-0.0683,-0.379,-0.454,-0.015,-0.919,0.147,-0.00292,-0.0328
GATTGCT,-2.61,-2.14,-0.692,-0.74,0.161,-0.83,-2.91,0.227,-0.0273
GGGTCGA,-0.0417,0.0653,0.83,1.92,-0.0475,2.21,0.231,0.0655,0.111
CCTCAGT,0.0599,-0.00664,0.0949,0.183,0.112,0.344,0.0758,0.0265,0.00229
TCCCTTA,-0.0945,-0.0975,0.209,-0.804,-0.0345,-0.172,-0.331,-0.0472,-0.152
GGACTCG,0.132,-0.00715,-0.029,0.281,0.027,0.148,0.0749,0.0507,-0.000487
CTTACAC,-0.00748,-0.154,-0.195,-2.41,-0.056,-0.805,-0.00966,-0.0954,-0.111
ATCATGC,-0.000486,-0.0271,-0.549,-0.175,0.0101,-0.936,0.165,0.0718,-0.1
TGGCTTG,-0.0699,-0.0866,-0.128,-0.217,-0.0731,0.168,0.0828,-0.0817,-0.225
AGACTTG,0.0136,0.0374,-0.0722,0.406,-0.128,0.967,0.0315,-0.0957,-0.0322
ATGGTGA,0.0432,-0.0406,0.0102,-0.0105,0.0151,-0.418,0.204,0.0532,-0.003
CAACTAT,-0.0655,-0.0179,-0.706,-2.89,-0.131,-0.759,-0.248,-0.175,-0.304
GTTCCTC,-0.0234,0.172,0.44,0.884,-0.00484,1.64,0.0771,0.205,0.14
ACGCAGG,0.00143,-0.104,-0.511,-0.504,-0.152,-1.04,0.0154,-0.114,-0.131
CAGGGCG,0.176,0.0763,-0.683,0.198,0.137,-0.451,0.296,0.175,-0.0692
CGGCCGT,0.00654,-0.00428,-0.0766,-0.126,-0.0257,-0.351,0.107,-0.0178,-0.0047

Sequence,uncleaved DNA left (log2) [1],uncleaved DNA left (log2) [2],uncleaved DNA left (log2) [3],uncleaved DNA left (log2) [4],uncleaved DNA left (log2) [5],uncleaved DNA left (log2) [6],uncleaved DNA left (log2) [7],uncleaved DNA left (log2) [8],uncleaved DNA left (log2) [9]
CACGCTT,0.0401,-0.00615,-0.526,-2.38,-0.0559,-0.216,-0.947,-0.0203,-0.0944
AAAATAC,-0.00266,-0.0569,-0.156,-1.03,-0.00929,-1,0.037,-0.0514,-0.00394
TCATACT,-3.76,-0.306,-3.22,-3.05,-0.0384,-1.54,-3.91,0.0644,-0.914
GCTGTAT,-0.0449,0.103,0.246,0.397,0.0512,0.724,0.0325,-0.0606,0.0254
ACATCCA,-0.051,0.0851,-0.0742,-0.961,0.0513,-0.314,0.0213,0.0205,-0.015
CACCCCA,-0.296,-0.118,-0.227,-2.2,-0.135,-0.598,-0.625,-0.0972,-0.0636
TAAGATA,-0.0254,-0.0609,-1.71,-2.57,-0.00221,0.0157,-0.0221,0.00406,-0.808
GGGCCAG,0.114,0.0991,0.865,2.07,-0.00691,2.29,0.306,-0.0266,0.212
ATGGCTT,0.08,0.0973,0.144,-0.085,-0.0106,0.828,-0.0443,0.0721,0.0289
ATCAATC,0.16,0.246,0.309,1.31,0.00335,0.876,-0.0446,0.0956,0.287
TAGCCTC,0.0385,0.00111,0.0967,-0.328,0.00945,0.0471,-1.31,0.0978,0.127
CCGCGTC,0.0351,0.00333,-0.227,-0.473,0.11,-0.744,0.268,0.05,-0.00258
TGTGCCG,-0.0286,-0.257,-0.989,-0.000844,-0.0917,-0.971,0.0816,-0.126,-0.29
AGTAAAC,0.0295,0.0523,0.146,0.0526,0.0673,-0.338,0.0729,0.059,0.0834
CACGCCG,-0.0532,-0.0538,-0.863,-0.144,-0.0706,-0.768,0.17,-0.0307,-0.113
AACGCGG,-0.115,-0.0672,0.0959,0.476,-0.0868,0.281,0.132,-0.138,-0.0135
CACGCCC,-0.136,-0.178,-0.302,-0.343,-0.0663,-0.591,-0.179,-0.143,-0.138
CGGCGTT,0.074,-0.251,-0.271,-0.557,-0.183,-0.356,-0.098,-0.241,-0.43
CCGAGCG,-0.0999,0.0221,-0.383,-0.0662,0.0458,-0.815,0.151,0.237,-0.0128

Sequence,uncleaved DNA left (log2) [1],uncleaved DNA left (log2) [2],uncleaved DNA left (log2) [3],uncleaved DNA left (log2) [4],uncleaved DNA left (log2) [5],uncleaved DNA left (log2) [6],uncleaved DNA left (log2) [7],uncleaved DNA left (log2) [8],uncleaved DNA left (log2) [9]
CGCGATT,-0.0499,-0.0809,-0.244,-0.289,-0.107,0.0654,-0.411,-0.285,-0.324
AGAACAA,0.0225,0.0266,0.4,0.729,0.055,0.532,0.0356,0.104,0.165
TTACTAG,-0.0972,-0.0917,-0.974,-1.55,-0.084,-1.31,0.0892,-0.0928,-0.175
AGCAACG,0.00715,0.0315,-0.289,-0.0974,-0.00643,-0.502,0.123,-0.00125,-0.036
GGACAGT,0.0406,0.0315,0.853,1.98,-0.0222,2.24,0.163,0.0161,0.142
CTTCTAG,0.00754,0.0501,-0.836,-0.518,-0.026,-1.23,0.133,0.187,0.086
CCACGCC,-0.0643,-0.17,-0.218,-0.387,-0.14,-0.763,-0.0861,-0.133,-0.28
CAGAATA,-0.132,-0.185,-0.28,-2.22,-0.112,-0.524,-1.7,-0.136,-0.12
AGTGTCA,-0.00588,0.00191,0.159,0.34,-0.0265,1.01,-0.251,-0.0452,-0.0221
TGGACAG,0.0355,0.0717,0.829,2.02,-0.0586,2.16,0.187,-0.0432,0.237
GTTAGTC,0.0273,0.0619,0.367,0.852,-0.00235,1.3,0.158,-0.00354,0.153
GCCCACT,-0.0601,-0.105,-0.0583,-1,-0.0465,-0.0521,-0.101,-0.0105,0.205
GGTAGCC,0.169,0.194,0.576,1.18,0.0255,1.38,0.154,0.18,0.217
GCTATTA,-0.104,-0.0188,-0.0168,-0.0622,-0.0829,0.286,-0.103,0.0232,-0.0497
ATCAAGT,-0.131,0.0728,0.0746,-0.319,0.0542,-1.03,-0.0272,-0.0038,0.0368
CTTCGAT,0.0269,-0.205,0.00296,-0.386,-0.053,-0.215,-0.207,-0.0277,-0.0507
AAATTCC,-0.167,-0.0259,-2.24,-2.1,0.00974,-0.661,-2.6,-0.00304,-0.398
TGGAACG,0.0086,-0.107,-0.365,-0.648,0.0109,-0.858,0.201,-0.0282,0.00821
